Measurements reported in PubChem BioAssay (NCATS).
The other results are listed elsewhere or left out. The main result of the screen is listed elsewhere. These columns were measured beside it and carry no call. The note in brackets gives the kind of curve behind each potency; many fits are weak.

Assay: qHTS drug screen for cell cycle checkpoint inhibitors in PARPi-resistant BRCA-mutant ovarian cancer cell lines. (AID 1963452)
Conditions: PEO1/OlaR viability, CellTiter-Glo luminescence, 96 h
Procedure, shortened: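 PEO1, PEO4 and PEO1/OlaR ovarian cancer cells, 600 per well, exposed 96 h at 37C to a dilution series. Viability read by CellTiter-Glo luminescence, normalized to DMSO and empty wells; activity summarized as Z-AUC.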

[1] = measured here: PEO1 parental viability
Tags give direction and shape of the fitted curve.

Row | SMILES | AC50 [1] | AC50 (measured here: PEO4 viability)
1 | FC(F)(F)c1ccc(CNc2ccc(Cc3c[nH]c4ncccc34)cn2)cc1 | 6.16 µM [falling, partial curve, poor fit] | 4.9 µM [falling, full curve]
2 | Cc1ccc(S(=O)(=O)Cc2nc(-c3ccc(C(=O)NCc4cccnc4)cc3)oc2C)cc1 | 0.049 µM [falling, full curve] | 0.0389 µM [falling, full curve]
3 | COCc1c(-c2ccc(NC(=O)Nc3cc(C(F)(F)F)ccc3F)c(F)c2)c2c(N)ncnn2c1CN1CCOCC1 | 12.3 µM [falling, partial curve, poor fit] | 6.92 µM [falling, partial curve, poor fit]
4 | Cc1ccc(NC(=O)Nc2nnc(Sc3ncnc4cc(OCCCN5CCOCC5)ccc34)s2)cc1 | 24.5 µM [falling, single point] | 24.5 µM [falling, single point]
5 | O=C(NOCC(O)CO)c1ccc(F)c(F)c1Nc1ccc(I)cc1F (centres undefined) | 0.245 µM [falling, full curve] | 0.347 µM [falling, full curve, poor fit]
6 | C=CC(=O)N1CC[C@@H](Oc2nc(Nc3ccc(N4CCC(N5CCN(C)CC5)CC4)cc3)c(C(N)=O)nc2CC)C1 | 3.01 µM [falling, partial curve] | 3.01 µM [falling, partial curve]
7 | Cc1ccc(C(=O)c2cc(O)c(O)c([N+](=O)[O-])c2)cc1 | 12.3 µM [falling, single point] | 24.5 µM [falling, single point]
